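Growth conditions: 96-well plates. Treatment: test compound, 48 hours, 5 concentrations. Analysis: linear interpolation between bracketing concentrations; unreached endpoints set to highest concentration. GI50 marks 50% less growth. TGI denotes the concentration required for complete inhibition of growth.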
What follows are compounds tested on NCI-H322M lung (assay: NCI anticancer screen, dose series, 48 h).

Row | Compound | GI50 [nM] | TGI [nM]
1 | CC1=CC(=O)CC(C)(C)[C@@]1(O)/C=C/C(C)=C\C(=O)O | 895 | 2870
2 | C#Cc1nc(/C=C/C(=O)NO)cs1 | 5860 | > 100000
3 | CCNCCCn1c2c(c3cc(OC)c(OC)cc3c1=O)C(=O)c1cc(OC)cnc1-2 | 1540 | > 52800
